In all, about 33,000 sequences were measured (“E-score (-0.5 to 0.5)”: median about -0.035, highest 2% from about 0.35 on). The list shows a part of the results.

In the assay the target is T1, Pdr3 (UniProt P33200).
T1 sequence: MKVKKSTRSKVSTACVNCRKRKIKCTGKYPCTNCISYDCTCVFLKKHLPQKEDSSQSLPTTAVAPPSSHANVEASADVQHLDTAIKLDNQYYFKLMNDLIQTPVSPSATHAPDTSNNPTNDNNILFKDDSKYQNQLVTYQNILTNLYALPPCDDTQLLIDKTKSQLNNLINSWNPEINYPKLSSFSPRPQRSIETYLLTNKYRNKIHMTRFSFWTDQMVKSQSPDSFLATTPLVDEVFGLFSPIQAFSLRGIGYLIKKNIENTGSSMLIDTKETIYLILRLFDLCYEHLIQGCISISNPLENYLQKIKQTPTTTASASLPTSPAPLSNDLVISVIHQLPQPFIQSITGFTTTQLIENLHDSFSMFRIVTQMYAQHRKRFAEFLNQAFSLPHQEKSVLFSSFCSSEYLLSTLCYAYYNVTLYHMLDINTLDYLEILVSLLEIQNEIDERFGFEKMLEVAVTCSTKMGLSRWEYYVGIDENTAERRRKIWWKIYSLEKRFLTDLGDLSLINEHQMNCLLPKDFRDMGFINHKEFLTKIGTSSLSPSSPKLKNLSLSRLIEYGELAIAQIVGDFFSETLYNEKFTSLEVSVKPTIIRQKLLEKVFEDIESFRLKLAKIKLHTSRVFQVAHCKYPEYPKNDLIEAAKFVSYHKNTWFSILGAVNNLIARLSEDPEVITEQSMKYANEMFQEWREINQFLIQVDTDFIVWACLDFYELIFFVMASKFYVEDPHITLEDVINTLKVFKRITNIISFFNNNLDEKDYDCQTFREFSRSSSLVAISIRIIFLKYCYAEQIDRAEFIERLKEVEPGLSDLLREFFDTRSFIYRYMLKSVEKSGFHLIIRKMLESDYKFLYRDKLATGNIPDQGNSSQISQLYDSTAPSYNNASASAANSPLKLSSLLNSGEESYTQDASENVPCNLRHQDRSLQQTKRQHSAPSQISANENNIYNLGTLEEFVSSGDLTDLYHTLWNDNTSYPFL
The experiment in a line: PBM E-score (8-mer binding enrichment) (E-score (-0.5 to 0.5)); higher = stronger / more preferred TF binding; most listed sequences are background and not binding sites. The settings on record: protein concentration: 200 nM; construct: GST-full length. The method in brief:
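Universal all-10-mer Agilent arrays, double-stranded by primer extension on fresh or once-stripped slides, were probed with about 100-200 nM GST-tagged yeast transcription factors made by PURExpress. Fluorescent anti-GST detected bound protein, and masliner normalised the scans. E-scores from the Universal PBM Analysis Suite were given to each ungapped eight-base word pooled with its reverse complement.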
Take CGCGCGTA: the “PBM E-score” value was determined as 0.143.

Regarding AACAAATC, the “PBM E-score” value was -0.01.

In the case of GTCTACCA, the “PBM E-score” value was -0.252.

Consider TGTCTCAA, for which the “PBM E-score” value is -0.167.

With AGTTCTCA, the “PBM E-score” value was -0.014.

Turning to TATACCAA, the “PBM E-score” value was 0.00904.

On to CGGCGAAG, for which the “PBM E-score” value was 0.154.

As for GTATTGAA, the “PBM E-score” value was 0.0318.

On to AAAAAATA, for which the “PBM E-score” value was -0.0194.

TCTGGCAA: the “PBM E-score” value came out at 0.0125.

On to GCTACTCC, for which the “PBM E-score” value was 0.0101.

Turning to CTGTAAAA, the “PBM E-score” value is -0.117.

As to ACAGTATA, the “PBM E-score” value was -0.046.

Take AGCTCGAT: the “PBM E-score” value was found to be 0.0398.

Consider GATCTGGA, for which the “PBM E-score” value is -0.0186.

Take GAAGCTAA: the “PBM E-score” value was -0.0973.

As to AAGCAGCC, the “PBM E-score” value is -0.0693.

Take GGAAACGA: the “PBM E-score” value turned out to be 0.106.

Turning to AATGCCAT, the “PBM E-score” value is 0.0798.

As to AACCGGTT, the “PBM E-score” value worked out at 0.282.

For TCCGCCGA, the “PBM E-score” value came to 0.376.

For the sequence AGAATTAA, the “PBM E-score” value is -0.199.

In the case of AACCGGGT, the “PBM E-score” value amounted to 0.229.

On to ACACAGAA, for which the “PBM E-score” value turned out to be 0.083.

As for CAGGTCAG, the “PBM E-score” value was found to be 0.068.

As to GCAGGTCA, the “PBM E-score” value is -0.137.

Turning to CGTTGAGA, the “PBM E-score” value was 0.0308.

As to AGGCTTTC, the “PBM E-score” value was -0.203.

Regarding ACAACTTG, the “PBM E-score” value is -0.0885.

Turning to CCTAATGA, the “PBM E-score” value is -0.116.

On to ACTATTGG, for which the “PBM E-score” value was -0.164.

CTATGTCA: the “PBM E-score” value was -0.105.

With ACACCACA, the “PBM E-score” value amounted to 0.0499.

In the case of ACCCTTGC, the “PBM E-score” value was -0.147.

For ACGGCAAC, the “PBM E-score” value was 0.0738.

In the case of GATTATGC, the “PBM E-score” value was found to be 0.129.

Turning to GATATAAA, the “PBM E-score” value was -0.13.

Turning to AAGAACCT, the “PBM E-score” value is -0.0892.

In the case of CCCGAGCG, the “PBM E-score” value came out at 0.203.

ACGCTCTC: the “PBM E-score” value is -0.0343.

For TCATATGA, the “PBM E-score” value is 0.112.

Take GTAATTAA: the “PBM E-score” value is -0.0507.

With GGTATCTA, the “PBM E-score” value was determined as 0.0155.

For CTAACGTA, the “PBM E-score” value was -0.154.

As for AGAGTGAC, the “PBM E-score” value was -0.249.

In the case of CGCCATCA, the “PBM E-score” value was -0.0859.

Consider GGGGTGTA, for which the “PBM E-score” value is -0.0995.

With CGGGTTAA, the “PBM E-score” value came out at 0.292.

Regarding AGCACCTA, the “PBM E-score” value was -0.139.

For CATGACGG, the “PBM E-score” value turned out to be 0.178.

ATAGGTGC: the “PBM E-score” value was -0.143.

For the sequence TCGTAGAA, the “PBM E-score” value was -0.203.

On to CATTACAG, for which the “PBM E-score” value is -0.142.

In the case of AGGCATAG, the “PBM E-score” value turned out to be 0.0412.

Take CCCCGGCA: the “PBM E-score” value worked out at 0.189.

As for CGAGATAA, the “PBM E-score” value is 0.176.

Consider ATGGAATG, for which the “PBM E-score” value was 0.184.

Regarding ACTGTATC, the “PBM E-score” value was -0.197.

As for AACGCACC, the “PBM E-score” value was -0.0303.

As to AAAAGGGG, the “PBM E-score” value was -0.0881.

As for GGAAATAA, the “PBM E-score” value was found to be 0.233.

For the sequence ATCTTCGC, the “PBM E-score” value came to 0.0969.

ATACAGTC: the “PBM E-score” value is -0.224.

For TATCCAGA, the “PBM E-score” value is 0.022.

Turning to CCGGGCCG, the “PBM E-score” value turned out to be 0.399.

In the case of ACACATGA, the “PBM E-score” value was -0.236.

Turning to ATAGCGTG, the “PBM E-score” value is -0.0691.

With ATTGATTC, the “PBM E-score” value stood at 0.23.

Consider TCAACTGA, for which the “PBM E-score” value is -0.107.

Take AAATGGTG: the “PBM E-score” value is -0.0896.

Take AGGATAGC: the “PBM E-score” value was 0.0992.

Regarding ACCGTCTG, the “PBM E-score” value is -0.195.

Take AACAGAAC: the “PBM E-score” value was -0.0207.

For the sequence CACCTTAC, the “PBM E-score” value is -0.118.

For AGGCTCTG, the “PBM E-score” value is -0.333.

Take TAGAAGGA: the “PBM E-score” value is -0.216.

Consider GGATGATA, for which the “PBM E-score” value was determined as 0.0683.

Take AACTCTAA: the “PBM E-score” value was 0.00328.

In the case of CTGGCCAG, the “PBM E-score” value was -0.195.

As for CTCTAAAC, the “PBM E-score” value was -0.201.

Turning to GCGAGCAA, the “PBM E-score” value was -0.058.

Turning to CATTAGCC, the “PBM E-score” value was -0.138.

As to AGCCGACC, the “PBM E-score” value was -0.12.

On to CCACTGAA, for which the “PBM E-score” value came out at 0.133.

For the sequence CGTTGAAA, the “PBM E-score” value is -0.0753.

Take ACGAGATG: the “PBM E-score” value was -0.126.

The values above are taken from the supplement of paper PMC3334620.
